# Results taken from PubChem BioAssay AID624170 (National Center for Advancing Translational Sciences (NCATS), 2012).
# The whole screen tested about 410,000 compounds, of which about 850 (0.21%) were called active. The inconclusive results got no clear call from the source; some entries with a clear call stand among them for comparison. The call rests on the fitted dose curve; in most records, active means well fitted inhibition curve with a large enough effect; inconclusive means small, poorly fitted or top-dose-only effect, or another doubt; inactive means no such curve, though single readings can be large or run the other way. No potency is given beside an inconclusive call; the fits are too rough.
# Target: Glutaminase kidney isoform, mitochondrial (Homo sapiens) (UniProt O94925)
# Chain of UniProt O94925 (O94925 whole entry, looked up, canonical isoform): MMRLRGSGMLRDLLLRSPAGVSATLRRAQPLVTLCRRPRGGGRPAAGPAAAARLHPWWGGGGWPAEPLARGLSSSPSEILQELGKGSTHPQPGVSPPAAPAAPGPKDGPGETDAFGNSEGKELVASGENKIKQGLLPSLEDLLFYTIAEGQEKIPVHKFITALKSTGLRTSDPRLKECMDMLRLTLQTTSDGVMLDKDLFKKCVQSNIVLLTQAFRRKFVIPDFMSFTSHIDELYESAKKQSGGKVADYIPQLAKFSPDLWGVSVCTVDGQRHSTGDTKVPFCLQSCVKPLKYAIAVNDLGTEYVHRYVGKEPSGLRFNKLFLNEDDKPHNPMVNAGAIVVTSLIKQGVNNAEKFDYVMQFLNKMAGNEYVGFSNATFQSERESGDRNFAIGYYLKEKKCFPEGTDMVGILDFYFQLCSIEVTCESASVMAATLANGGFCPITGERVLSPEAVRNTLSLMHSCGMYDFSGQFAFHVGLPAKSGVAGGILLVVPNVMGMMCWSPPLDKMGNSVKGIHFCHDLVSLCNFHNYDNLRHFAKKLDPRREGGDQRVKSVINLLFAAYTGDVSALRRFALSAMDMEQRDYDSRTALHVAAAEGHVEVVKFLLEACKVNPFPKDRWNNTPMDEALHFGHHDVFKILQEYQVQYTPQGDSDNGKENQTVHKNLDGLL
# Test: qHTS for Inhibitors of Glutaminase (GLS)
# Conditions: GLS enzymatic activity, qHTS titration; series mostly up to 45.5 µM; activity change, negative = inhibition: at the top concentration
# In short: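 Enzyme dispensed in phosphate buffer (45 mM, pH 8.2, 0.02% Tween-20), compounds pinned in, then 1 mM L-glutamine solution and the glutamate oxidase–HRP–Amplex Red mix added; fluorescence read immediately and again after 30 min at room temperature.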
# On the % scale 0 is the no-effect control and ±100 the full control effect; potency means the concentration at half of the fitted maximal effect; tags describe the fitted curve by direction and shape.
Structure (SMILES),Potency,"activity change, negative = inhibition"
Cc1cc(O)c(C(=O)/C=C/c2c(F)c(F)c(F)c(F)c2F)c(=O)o1,"inconclusive [inhibitor, single point]",
COc1cc(C(=O)Oc2ccccc2/C=N/NC(=O)c2ccc(Cl)cc2)cc(OC)c1OC,,inactive: -3.24%
Nc1nc2ccc(O)cc2s1,active: 12.6 µM,
Cn1cnnc1SCC(=O)Nc1ccc(OCc2ccccc2)cc1,"inconclusive [inhibitor, single point]",
CCn1c2ccccc2c2cc(/C=N/n3c(-c4cc(C)[nH]n4)n[nH]c3=S)ccc21,"inconclusive [inhibitor, single point]",
COc1cc2c(cc1OC)CN(CC(=O)Nc1cccc([N+](=O)[O-])c1)CC2,"inconclusive [inhibitor, single point]",
Cc1ccc(CNC(=O)Cn2c(=O)n(-c3ccc(Cl)cc3)c(=O)c3c(C)c(C)sc32)cc1,,inactive: 12.3%
CC(C)(C)c1ccc(C(=O)Nc2ccc(C=C(C#N)C#N)cc2)cc1,,inactive: 4.36%
CCOC(=O)C1CN(S(=O)(=O)c2ccc(C)cc2)c2cc(S(=O)(=O)CC)ccc2O1 (centres undefined),"inconclusive [inhibitor, single point]",
COc1ccccc1NC(=S)NCCc1c[nH]c2ccccc12,"inconclusive [inhibitor, single point]",
Cc1ccc2c(c1)sc1nc(=O)n(-c3ccccc3)c(=O)n12,,inactive: -6.47%
S=c1[nH]nc(COc2ccc(Cl)cc2Cl)n1-c1ccccc1,"inconclusive [inhibitor, full curve]",
COc1cc(C(=O)NNC(=S)NC(=O)/C=C/c2ccccc2)cc(OC)c1OC,"inconclusive [inhibitor, single point]",
CCCCN(C)C(=O)C1CCCN(c2ncnc3onc(-c4ccc(F)cc4)c23)C1 (centres undefined),,inactive: -3.14%
CC(=O)Nc1cccc(CCc2nc3ccccc3[nH]2)c1,"inconclusive [inhibitor, single point]",
COC(=O)C1=C(C)N(Cc2ccco2)C(=O)C1,"inconclusive [inhibitor, single point]",
CCN(CC)C1=CC2=CC(=C(C#N)C#N)CCC2CC1 (centres undefined),"inconclusive [inhibitor, partial curve]",
COc1ccc(C2NC(=O)CCC2[N+](=O)[O-])c(OC)c1OC (centres undefined),"inconclusive [inhibitor, single point]",
CCN(CC)C(=O)CSc1nc(-c2cccs2)cc(-c2cccs2)c1C#N,"inconclusive [inhibitor, partial curve, poor fit]",
